The values that follow come from paper PMC4336329 (PLoS ONE, 2015).

The whole screen tested about 310,000 compounds, of which about 2,200 (0.71%) showed an effect of 50% or more. The effect is printed as a negative number. The list shows a part of the results.

Chain of human ether-à-go-go-related gene (hERG) potassium channel (Q12809 whole entry, looked up): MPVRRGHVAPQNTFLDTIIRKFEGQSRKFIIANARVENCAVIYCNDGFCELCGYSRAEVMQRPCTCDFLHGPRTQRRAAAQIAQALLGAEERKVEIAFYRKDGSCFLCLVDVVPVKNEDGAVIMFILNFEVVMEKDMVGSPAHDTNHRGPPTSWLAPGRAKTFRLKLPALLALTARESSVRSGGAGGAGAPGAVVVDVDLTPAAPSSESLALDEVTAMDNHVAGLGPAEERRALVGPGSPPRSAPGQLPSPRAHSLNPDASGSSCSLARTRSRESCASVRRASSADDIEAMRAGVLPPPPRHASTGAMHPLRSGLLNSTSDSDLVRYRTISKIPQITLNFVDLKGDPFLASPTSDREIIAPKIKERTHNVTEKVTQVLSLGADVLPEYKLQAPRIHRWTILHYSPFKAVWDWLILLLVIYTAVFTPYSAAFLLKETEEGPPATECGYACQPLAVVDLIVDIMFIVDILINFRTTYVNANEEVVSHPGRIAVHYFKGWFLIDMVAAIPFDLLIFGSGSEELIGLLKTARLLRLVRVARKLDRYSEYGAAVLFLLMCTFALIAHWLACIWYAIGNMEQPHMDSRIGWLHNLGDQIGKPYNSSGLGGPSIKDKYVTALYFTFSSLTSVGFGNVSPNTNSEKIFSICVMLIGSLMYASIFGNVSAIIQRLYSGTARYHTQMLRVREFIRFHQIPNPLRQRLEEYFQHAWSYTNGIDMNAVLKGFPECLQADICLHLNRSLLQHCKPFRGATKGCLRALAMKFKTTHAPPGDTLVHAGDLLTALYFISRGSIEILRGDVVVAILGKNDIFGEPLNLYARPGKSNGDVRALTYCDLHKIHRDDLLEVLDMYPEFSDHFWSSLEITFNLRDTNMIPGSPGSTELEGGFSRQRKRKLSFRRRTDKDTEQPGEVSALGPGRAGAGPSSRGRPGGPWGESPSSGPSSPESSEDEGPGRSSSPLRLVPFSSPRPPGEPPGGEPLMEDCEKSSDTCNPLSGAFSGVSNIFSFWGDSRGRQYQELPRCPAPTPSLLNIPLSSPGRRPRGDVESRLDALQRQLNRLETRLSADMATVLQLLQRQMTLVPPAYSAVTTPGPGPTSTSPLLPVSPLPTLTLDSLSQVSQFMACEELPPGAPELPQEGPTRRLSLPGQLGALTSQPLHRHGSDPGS

The experiment addresses human ether-à-go-go-related gene (hERG) potassium channel (human, UniProt Q12809). As to the kind of experiment: primary screen, population patch clamp on CHO cells stably expressing hERG.
Regarding `NC(=O)c1ccccc1NC(=S)NC(=O)c1ccc(Br)o1`, the “hERG current change (%, negative = inhibition) at 1uM” value is 1.92%.

Take `COc1ccccc1NC(=O)CS(=O)(=O)c1cn(CC(=O)N2CCOCC2)c2ccccc12`: the “hERG current change (%, negative = inhibition) at 1uM” value was 5.18%.

For `O=C(CN(C(=O)c1csnn1)c1ccc(F)c(Cl)c1)NCc1ccc2c(c1)OCO2`, the “hERG current change (%, negative = inhibition) at 1uM” value is -0.168%.

For `CC(C)C[C@H](NC(=O)c1nc[nH]c1C(=O)NCc1ccc(CNC(=O)OC(C)(C)C)cc1)C(=O)OCc1ccccc1`, the “hERG current change (%, negative = inhibition) at 1uM” value was found to be 13.3%.

As for `O=C(Nc1ccc(F)cc1)c1cccnc1Oc1ccccc1`, the “hERG current change (%, negative = inhibition) at 1uM” value is recorded as 5.92%.

Take `CCOc1c(O)ccc(C2NC(=O)NC(C)=C2C(=O)OC)c1[N+](=O)[O-]` (centres unmarked): the “hERG current change (%, negative = inhibition) at 1uM” value was -3.15%.

On to `COc1ccc(C(=O)NNC(=O)CCn2nnc(-c3ccc(C)cc3)n2)cc1OC`, for which the “hERG current change (%, negative = inhibition) at 1uM” value is reported as 14.2%.

For `CC[n+]1c(/C=C/C=C/c2ccc(N(C)C)cc2)sc2ccccc21.[O-][Cl+3]([O-])([O-])[O-]`, the “hERG current change (%, negative = inhibition) at 1uM” value is given as -29%.

Turning to `CCn1c(CSc2nccn2C)nc2cc(C(=O)O)ccc21`, the “hERG current change (%, negative = inhibition) at 1uM” value turned out to be 12.7%.

With `Cc1ccc(OCC(O)CN2CCC(Cc3ccccc3)CC2)c(C)c1.Cl` (centres unmarked), the “hERG current change (%, negative = inhibition) at 1uM” value is recorded as -49.9%.

As to `CC(C)(CO)NC12CC3CC(CC(C3)C1)C2`, the “hERG current change (%, negative = inhibition) at 1uM” value was found to be 6.93%.

Consider `CC(=O)NNC(=O)CN1C(=O)CN=C(c2ccccc2)c2cc(Br)ccc21`, for which the “hERG current change (%, negative = inhibition) at 1uM” value turned out to be 10.7%.

`O=C(Nc1nccs1)c1cc2sccc2n1Cc1ccc(Cl)cc1`: the “hERG current change (%, negative = inhibition) at 1uM” value came to 1.23%.

For `COC(=O)C1(S(=O)(=O)C2(C(=O)OC)CCCC2)CCCC1`, the “hERG current change (%, negative = inhibition) at 1uM” value came out at 0.758%.

On to `Nn1c(SCC(=O)Nc2ccccc2F)nnc1C1CCCCC1`, for which the “hERG current change (%, negative = inhibition) at 1uM” value came out at 21.7%.

Regarding `O=C(COC(=O)c1cnccn1)NC(=O)c1ccccc1`, the “hERG current change (%, negative = inhibition) at 1uM” value came out at 0.268%.

For `O=C(/C=C/c1ccccc1[N+](=O)[O-])N1CCCCC1`, the “hERG current change (%, negative = inhibition) at 1uM” value worked out at 5.23%.

`COc1cc(C(=O)O/N=C(\N)c2cccc([N+](=O)[O-])c2)cc(OC)c1OC`: the “hERG current change (%, negative = inhibition) at 1uM” value stood at 2.97%.

Regarding `N#C/C(C(=O)NCc1ccccc1)=C1/SC(Cc2ccc(Cl)cc2)C(=O)N1c1ccccc1` (centres unmarked), the “hERG current change (%, negative = inhibition) at 1uM” value came out at 9.79%.

On to `CC(C)(C)CC(=O)Nc1cc(S(=O)(=O)N2CCOCC2)ccc1N1CCCC1`, for which the “hERG current change (%, negative = inhibition) at 1uM” value is given as 11.8%.

As to `Cc1ccc(CNC(=O)Nc2ccc(OC(F)(F)F)cc2)n1C`, the “hERG current change (%, negative = inhibition) at 1uM” value was 11.5%.

`Cc1ccccc1/C=C/C(=O)N1CCOCC1`: the “hERG current change (%, negative = inhibition) at 1uM” value is on record as 10.8%.

`COc1cc(/C=C/C(=O)NC(C)CCc2ccccc2)cc(OC)c1OC` (centres unmarked): the “hERG current change (%, negative = inhibition) at 1uM” value is given as 1.76%.

Regarding `Cc1ccc(C(=O)NCc2ccccc2F)cc1S(=O)(=O)N1CCCC1`, the “hERG current change (%, negative = inhibition) at 1uM” value is recorded as 13.1%.

On to `CCOC(=O)C1CCN(C(=O)COC(=O)Cc2ccc(Cl)cc2)CC1`, for which the “hERG current change (%, negative = inhibition) at 1uM” value is on record as 7.66%.

Take `CCOc1ccc(OC(=O)C(CCS(C)(=O)=O)N2C(=O)c3ccccc3C2=O)cc1` (centres unmarked): the “hERG current change (%, negative = inhibition) at 1uM” value was 2.6%.

`O=C(NCCc1cccs1)c1cccs1`: the “hERG current change (%, negative = inhibition) at 1uM” value was 7.11%.

Regarding `COc1ccc(C/C(N)=N/OC(C)=O)cc1OC`, the “hERG current change (%, negative = inhibition) at 1uM” value is 10.4%.

For the compound `CCc1ccccc1NC(=O)CCNC(=O)Cn1ccc2ccccc2c1=O`, the “hERG current change (%, negative = inhibition) at 1uM” value is recorded as 17.9%.

As for `Cl.NCCCC[C@@H](C(=O)N1CCNCC1)n1cc(CCC(=O)O)nn1`, the “hERG current change (%, negative = inhibition) at 1uM” value was 27.8%.

With `CN(Cc1c(C(=O)N/N=C/c2ccccc2)nnn1-c1nonc1N)c1ccccc1`, the “hERG current change (%, negative = inhibition) at 1uM” value amounted to 14.7%.

For `CC(C)CCNC(=O)c1cc(C(=O)c2cc(F)ccc2O)cn(CCC(C)C)c1=O`, the “hERG current change (%, negative = inhibition) at 1uM” value was determined as 13.2%.

Regarding `O=C(Nc1nnc(-c2ccccc2)o1)C1CCCN1S(=O)(=O)c1cccs1` (centres unmarked), the “hERG current change (%, negative = inhibition) at 1uM” value was determined as 19.5%.

In the case of `CCc1ccc(N/C(N)=N/c2nc(CSc3ncccn3)cc(=O)[nH]2)cc1`, the “hERG current change (%, negative = inhibition) at 1uM” value is 14.9%.

As to `Cc1nnc(NC(=O)CSc2nc3[nH]ncc3c(=O)[nH]2)s1`, the “hERG current change (%, negative = inhibition) at 1uM” value was found to be 13.9%.

In the case of `O=C1CC(NS(=O)(=O)c2cc(F)ccc2F)CN1c1ccc2c(c1)OCCO2` (centres unmarked), the “hERG current change (%, negative = inhibition) at 1uM” value worked out at 8.64%.

For the compound `C[C@H]1CN=C(N(C)C)N1CC1CCCCC1`, the “hERG current change (%, negative = inhibition) at 1uM” value is on record as 10.9%.

With `C[C@H](NC(=O)[C@@H]1Cc2ccccc2CN1C(=O)OC(C)(C)C)C(=O)NCc1ccco1`, the “hERG current change (%, negative = inhibition) at 1uM” value turned out to be 27.7%.

Take `Cc1ccc2c(c1)N(Cc1ccccn1)C(=O)C(C)O2` (centres unmarked): the “hERG current change (%, negative = inhibition) at 1uM” value is reported as 5.6%.

As to `O=C(CCc1nc2ccccc2[nH]1)Nc1ccc(F)cc1`, the “hERG current change (%, negative = inhibition) at 1uM” value is on record as -0.822%.

For the compound `CCc1ccc(N=C2NC(=O)/C(=C/c3cc(OC)c(OC)c(OC)c3)S2)cc1`, the “hERG current change (%, negative = inhibition) at 1uM” value worked out at 12%.

In the case of `CC(=O)N1CCc2cc(S(=O)(=O)NC(CC(C)C)C(=O)N3CCc4ccccc4C3)ccc21` (centres unmarked), the “hERG current change (%, negative = inhibition) at 1uM” value is given as -5.9%.

For the compound `CCOc1cc(NC(=O)c2cccs2)c(OCC)cc1NC(=O)c1ccccn1`, the “hERG current change (%, negative = inhibition) at 1uM” value came to 0.549%.

Turning to `COc1ccc(COC(=O)C2=C(C)NC(=O)NC2c2ccc(F)cc2)cc1` (centres unmarked), the “hERG current change (%, negative = inhibition) at 1uM” value was 9.52%.

Turning to `CC(C)Cc1ccc(C(=O)NCCOc2ccccc2)o1`, the “hERG current change (%, negative = inhibition) at 1uM” value is 6.77%.

With `CCCc1ccc(Oc2cn[nH]c2-c2ccc(O)cc2O)cc1`, the “hERG current change (%, negative = inhibition) at 1uM” value came out at 5.54%.

For the compound `COc1ccccc1-c1noc2ncnc(Nc3cccc(C)c3)c12`, the “hERG current change (%, negative = inhibition) at 1uM” value amounted to 18.1%.

As to `CC1CCN(S(=O)(=O)c2ccc(S(=O)(=O)NCc3ccccc3)cc2)CC1`, the “hERG current change (%, negative = inhibition) at 1uM” value is reported as 4.48%.

With `CCC(C(=O)NC(C)(C)C)N(Cc1ccccc1Cl)C(=O)c1snc(C(N)=O)c1N` (centres unmarked), the “hERG current change (%, negative = inhibition) at 1uM” value was 13%.

As for `O=C(c1cccc(Cl)c1)N1CCCc2ccccc21`, the “hERG current change (%, negative = inhibition) at 1uM” value came out at 12.3%.

As for `NC(=O)c1ccc(-c2noc(-c3cccc(Cl)c3)n2)cc1`, the “hERG current change (%, negative = inhibition) at 1uM” value is listed as 13.3%.

As for `N/C(=N\OC(=O)Oc1ccccc1)c1ccc([N+](=O)[O-])cc1`, the “hERG current change (%, negative = inhibition) at 1uM” value was 16.4%.

For `CC(=O)Nc1cccc(CP(=O)(c2ccccc2)c2ccccc2)c1`, the “hERG current change (%, negative = inhibition) at 1uM” value is 12.7%.

For `Cc1cc(C(=O)Nc2ccc3nc(C)sc3c2)c2ccccc2n1`, the “hERG current change (%, negative = inhibition) at 1uM” value worked out at 8.39%.

Consider `CCC(=O)Oc1oc(-c2ccccc2)nc1C=Nc1ccc(C)cc1`, for which the “hERG current change (%, negative = inhibition) at 1uM” value was 11.8%.

For the compound `O=C(NCN1C(=O)C2C3C=CC(C3)C2C1=O)Nc1cccnc1` (centres unmarked), the “hERG current change (%, negative = inhibition) at 1uM” value is 8.65%.
